Results on 57 sequences are retold here after the supplement of paper PMC11417369.

This is one part of the list.

This assay deals with PF3D7_0420300 AP2 domain 1 (GST-tagged). The assay can be described thus: gcPBM binding intensity (ln(normalized median fluorescence intensity)); higher = stronger DNA binding. Summed up:
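Binding intensity values are the highest Masliner-normalised natural-log median intensity among replicate spots of either probe orientation. The binding step lasted 1 h in 1× PBS with 1% milk, 0.2 mg/ml BSA, 0.5% salmon testes DNA and 0.03% Triton X-100, using GST-tagged P. falciparum DNA-binding domains expressed in E. coli on an Agilent 4 × 180k array of primer-extended double-stranded 36-bp intergenic genomic probes plus negative controls. Alexa488 anti-GST antibody and a 488 nm scan detected bound protein.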
For the sequence “AATAGGATATGGTACATTTTTTGTATACTTTTTGTT [CACACA_negctrl_site1804]”, the “gcPBM binding intensity (ln)” value amounted to 9.41.

Turning to “ATAAATTCTATGTATACACACATATATAATATATAT [CACACA_site2689]”, the “gcPBM binding intensity (ln)” value was determined as 9.59.

On to “AAACAAGTAATTGTTATTATTATTATATTATTATTA [CACACA_negctrl_site402]”, for which the “gcPBM binding intensity (ln)” value was determined as 9.

Turning to “TATTTCATCTTTTAAGAAGGTACCCATATGTCATAT [GTGCAC_negctrl_site403]”, the “gcPBM binding intensity (ln)” value came to 8.96.

On to “ATATATATATATATTTGTACTTACATTTTTATTTAT [XGTACX_site4551]”, for which the “gcPBM binding intensity (ln)” value was found to be 9.36.

Turning to “AAAAATATAACCGTTACACACAAAATAATATGAGAA [CACACA_site3773]”, the “gcPBM binding intensity (ln)” value came out at 9.75.

Take “ATAATAAGGTTAAGCACACATATTACATATATAACT [CACACA_site3356]”: the “gcPBM binding intensity (ln)” value came out at 9.51.

With “GAACGATATATTATATGTACATATATATATATATAT [XGTACX_site394]”, the “gcPBM binding intensity (ln)” value was 9.26.

For TCGTTTCATAATATTGTGCACATATATATTTACAAT, the “gcPBM binding intensity (ln)” value came out at 9.43.

As for “CGTAAACGATATAAATGTACGAATATCTATATATTA [XGTACX_site8116]”, the “gcPBM binding intensity (ln)” value came to 8.98.

In the case of “TATATATTGCCCTTCACACACACACCGATATATATA [CACACA_site5390]”, the “gcPBM binding intensity (ln)” value is 10.2.

With “AATATATAAGCTGTTCTATTCAAGAATTATATCTTA [CACACA_negctrl_site270]”, the “gcPBM binding intensity (ln)” value is 9.06.

With “CAAAGGAAACCTATCTGTACACATATTGGGGGAAAA [XGTACX_site3502]”, the “gcPBM binding intensity (ln)” value worked out at 9.29.

Turning to “AGAAGATTAAACATTGCACACAAAAACATATTTTCT [CACACA_site8072]”, the “gcPBM binding intensity (ln)” value turned out to be 9.54.

As to “TAATAAAAAGTTGAGGTGCATATAGAGTTCTTCTTT [GTGCAC_site9508]”, the “gcPBM binding intensity (ln)” value came to 9.4.

With ATATTTTATATAATAGTGCAAATAATATTAAATAAT, the “gcPBM binding intensity (ln)” value amounted to 9.24.

On to “ATTATAATATTTAATTGTACTTGTATTTATTCCAAA [XGTACX_site6417]”, for which the “gcPBM binding intensity (ln)” value turned out to be 9.17.

Consider “TGCCCTTTGGTTATAACACACATGCACCCGTAAATA [CACACA_site3842]”, for which the “gcPBM binding intensity (ln)” value amounted to 9.5.

With “CACATAAAATAAGGTGCATGCAAACGAGAAAATAAA [TGCATGCA_site75]”, the “gcPBM binding intensity (ln)” value worked out at 9.58.

“AATAAATATATTAAAAGTACACAAATATTATTTAAT [XGTACX_site2482]”: the “gcPBM binding intensity (ln)” value turned out to be 9.28.

On to “AAGATTAAACATTGCACACAAAAACATATTTTCTAT [CACACA_site530]”, for which the “gcPBM binding intensity (ln)” value worked out at 9.4.

For “AAAAAAAATATATTACAAAACTTAGGATCCTAATAT [CACACA_negctrl_site470]”, the “gcPBM binding intensity (ln)” value stood at 9.31.

In the case of “ATATATATATAATAATGTACTTATAATAGATGTGTA [XGTACX_site4677]”, the “gcPBM binding intensity (ln)” value is 9.33.

Take “GGAAGCTAATTACACACATGCATATTTTTTTTTCAA [TGCATGCA_site548]”: the “gcPBM binding intensity (ln)” value was 9.6.

Regarding “ATAATATAGAACAATACATGCAAATGGCTTAAATTT [TGCATGCA_site521]”, the “gcPBM binding intensity (ln)” value came to 9.54.

In the case of “ATGGGACAGATATATACACACATATAAATATAAATA [CACACA_site6684]”, the “gcPBM binding intensity (ln)” value was found to be 9.77.

“AAAGGGACATATATATCACACACAAAAATTAGTCCC [CACACA_site8897]”: the “gcPBM binding intensity (ln)” value worked out at 9.76.

“TAATATCTACATATATGTACATATATATATATATAT [XGTACX_site7979]”: the “gcPBM binding intensity (ln)” value is 9.17.

“TTATATATGTATTAATGTACATAGTTGAGAAAGGTA [XGTACX_site1511]”: the “gcPBM binding intensity (ln)” value was found to be 9.31.

“TTTATTATTATATTATTTTAATTTTTCTTTAGTACA [GTGCAC_negctrl_site392]”: the “gcPBM binding intensity (ln)” value amounted to 9.07.

In the case of “CATTTCATTTCTTAATGTACTTTATTCCACCACATA [XGTACX_site5943]”, the “gcPBM binding intensity (ln)” value is 9.23.

With “ATAAATATATGAAGTTGTACAAATAATTAACATTAT [XGTACX_site5740]”, the “gcPBM binding intensity (ln)” value stood at 9.37.

As for “AAATTAAATAAATTTACACACTAAAAATTACATATA [CACACA_site1054]”, the “gcPBM binding intensity (ln)” value amounted to 9.33.

In the case of “ATTTTTTTTAATTTGTACAAATTTTGTTCACAATTT [CACACA_negctrl_site1301]”, the “gcPBM binding intensity (ln)” value turned out to be 9.26.

As for “TACCATGTTCAAATTACACACATATAATCTAATATA [CACACA_site2008]”, the “gcPBM binding intensity (ln)” value worked out at 9.43.

Take “TATGTTAAAAAAAAATGTACATATGTTTTTGTTAAA [XGTACX_site4754]”: the “gcPBM binding intensity (ln)” value was determined as 9.07.

As for “GACCCATTATTTTATTGTACTTTTATTATAACGTGA [XGTACX_site156]”, the “gcPBM binding intensity (ln)” value came to 9.55.

As to “AAATGAATAATGATATACAAACAAATCATGTGTTAA [XGTACX_negctrl_site150]”, the “gcPBM binding intensity (ln)” value stood at 9.28.

“TTTCCCCCATATAATGAACACACACCCTCCTCATAA [CACACA_site8110]”: the “gcPBM binding intensity (ln)” value was 9.85.

In the case of “ATACATTCAAAATATACACACATATATATATAATAT [CACACA_site950]”, the “gcPBM binding intensity (ln)” value amounted to 9.61.

“ATGTGTGTATACATCAATTATATATATATTATGTAT [GTGCAC_negctrl_site720]”: the “gcPBM binding intensity (ln)” value worked out at 9.55.

Take “AAAATAAAAATAACAACACACATATACTATAATATT [CACACA_site2769]”: the “gcPBM binding intensity (ln)” value was determined as 9.96.

For the sequence “AAAATGATAATACCAAGTACACATATGAAAAATACA [XGTACX_site6763]”, the “gcPBM binding intensity (ln)” value came out at 9.71.

Turning to “TAAAAACATTTAAATTGTACGGAAATAAAAATTTTT [XGTACX_site8225]”, the “gcPBM binding intensity (ln)” value was found to be 9.09.

For the sequence TAAATCATTTATTAAGTGCAATATTCTTTTTGAGAT, the “gcPBM binding intensity (ln)” value turned out to be 8.85.

Consider “TGTTTTCCCTTTAGTGTGCACGTATTTCTATTAACA [GTGCAC_site9847]”, for which the “gcPBM binding intensity (ln)” value is 9.71.

With “ATATAAATATTAAATACACACATTTTTGATTAGGTT [CACACA_site7461]”, the “gcPBM binding intensity (ln)” value was determined as 9.43.

Consider “TCATATAATCAAATATGTACATATTTTCAATTGAAT [XGTACX_site6831]”, for which the “gcPBM binding intensity (ln)” value was determined as 9.

For “ATATAATTTGATGGTTAACACACATATATATTATAT [CACACA_site8775]”, the “gcPBM binding intensity (ln)” value stood at 9.46.

Turning to “TTATTTATTTTTTATACACACAATTATCTTTTTAAG [CACACA_site6162]”, the “gcPBM binding intensity (ln)” value was 9.46.

In the case of “ATATTTATTTAATGAACACACGATATATTATTTTAT [CACACA_site1602]”, the “gcPBM binding intensity (ln)” value stood at 9.34.

Regarding “ATATAGAATATATTAACATGCAATAAGTAAAGGGGG [TGCATGCA_site1022]”, the “gcPBM binding intensity (ln)” value came out at 9.96.

“ACAATGAAATATTCATGTACATATAAATAATAGTGT [XGTACX_site3762]”: the “gcPBM binding intensity (ln)” value was found to be 9.32.

Turning to “CACTTCATAAAAATTGCACACATATAATAATGTACA [CACACA_site8692]”, the “gcPBM binding intensity (ln)” value stood at 9.31.

“TACAAAATACAAAAATGTACATAAAAATTTATAAAA [XGTACX_site6861]”: the “gcPBM binding intensity (ln)” value amounted to 9.17.

Consider “TACAGATACGGACACACACACACACCCAGACAAAAA [CACACA_site4432]”, for which the “gcPBM binding intensity (ln)” value is 10.

In the case of “ATATTAAAATATAATCGTACAATTAAATTTTTTTTT [XGTACX_site2739]”, the “gcPBM binding intensity (ln)” value is 8.97.
